# The other results are listed elsewhere or left out. At the low end of the ranking the order means little. Measured with an extract: partners may take part in the binding.
# Target: T1, HNF4alpha2 (COS-7 nuclear extract) (UniProt P41235)
# T1 sequence: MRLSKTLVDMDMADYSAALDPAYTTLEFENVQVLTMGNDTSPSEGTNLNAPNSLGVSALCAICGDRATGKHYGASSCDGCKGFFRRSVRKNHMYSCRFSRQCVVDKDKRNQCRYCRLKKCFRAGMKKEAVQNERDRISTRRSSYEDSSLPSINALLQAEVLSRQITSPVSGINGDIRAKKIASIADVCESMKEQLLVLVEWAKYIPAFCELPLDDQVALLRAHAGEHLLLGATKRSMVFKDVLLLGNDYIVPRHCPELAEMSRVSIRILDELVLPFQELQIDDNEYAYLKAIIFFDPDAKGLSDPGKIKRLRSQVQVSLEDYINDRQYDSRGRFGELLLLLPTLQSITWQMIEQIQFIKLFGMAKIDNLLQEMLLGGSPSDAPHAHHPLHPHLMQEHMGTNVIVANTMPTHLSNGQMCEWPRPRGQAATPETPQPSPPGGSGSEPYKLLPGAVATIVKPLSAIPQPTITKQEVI
# Test: protein-binding microarray
# Settings: COS-7 nuclear extract on double-stranded Agilent 4x180k PBM; binding buffer, salt, pH and temperature not given; high values mean tight binding; double strand, one strand shown; sequences stand for … in …GCCTAGGGAGATTAGAGTATCGGTCGA
row,Sequence,binding signal (log2 normalized intensity)
1,AGCTTCTCTTTCTAGGTCACCACCTTTTTT,1.37
2,CCGGGGAGATACTGTAAACCAGCAGTATCT,-1.1
3,AACTGGACTAGACAGGCTTGTCGAGGACAG,-1.09
4,GTTAAGTGAGTGGACTTTGGTCCTGGTCAG,6.52
5,GGAGCAGCATGGCCCTTTGCAGCCCGAGCT,-1.07
6,CAAAGGTCAGATGACAGAATTGGTCCTGGA,2.21
7,ACCTACACCTATGTGGTCAAAACTTTGTTT,0.46
8,TTTATCAGTGATTTCTCTTCCATCTCAGCT,-1.14
9,AAAGCTCACAGATGTGGAATGAAACCAGTT,-0.573
10,CGGAGCGCCGAGCAGGCACCCCGGGAGCGC,-1.2
11,TTCCTCAACTCTAGGAGCATGTCAAAAGCT,-1.06
12,AGGGCAGCATAATCACATACAGGCCAGCTG,-1.25
13,GGTCCTGCCATTAAACACCTTATTTGGTCA,1.44
14,TGTTCGCAGACCTGCCAAAGTGTACCCTGT,2.8
15,TAATCATATCTGCCTCAGTAGTAGTGAAAA,1.48
16,CCAAAAAGCATAACTGTATAACCTGGAACT,-1.13
17,AGAATGAGCCTCTTCTTTAATAAGAAAAGG,-1.09
18,AAATTCCTAGCCCTCTTTCAAAGACAAATA,0.281
19,AGTAATCAATGGTTGCACTCTGGTGCCCTC,2.25
20,CATTGCCCCCTATGTAAAGGCCTTTGAAGC,3.5
21,GTCTGCACTCCAGGAAAGACGAGTGCGCTT,-1.09
22,GCGTGGCCCAGCATGCCCCGCGCCGCGTCC,0.859
23,AGAGAGTTCTATGGGATGACCTTTGAGCAA,6.93
24,GGCAGATATGAAAGAGCCATGGACTGCTGA,-0.302
25,TGAGAAGGGCTAATATTTGCAAATGACTTT,-1.05

row,Sequence,binding signal (log2 normalized intensity)
1,TGAAATCTACAGGACAGCCAGGCAGTCGGG,-1.15
2,GCCTGCGGGGTCAGGCCGTGGTGTATGATG,1.73
3,CTGCCTTGGAGGCACTCCCAGGATAATGGA,-0.971
4,AATGCAGCAGCATTGGACCCTCCCAGCCAA,3.94
5,GAAAAAGCTGACGCCCCACCCCCTCCACCC,6.44
6,GCTGGACTTTCATCTGAGTCTCAGCAATTA,1.1
7,TTTGTTTTTACAGACAGGCATGACAGAGTG,1.68
8,TGAGCTGTGGTTAAGACTCAAAGTTCAGTC,2.94
9,CTAATGGTACCATCTGCCACTCATAGAACT,-1.12
10,GGAGCTGAAACTATAAACTTGGTTACAGGA,-1.09
11,AGTAAAGGTCGTTCTATCGGAGAACGTTCC,0.386
12,TCATCAGTGCCATTCATTAGTCCTGGTTTT,1.66
13,ATATTGACTGCCCCAACGCCTCCTTTCATC,2.66
14,TTAGAAGGCTCCCTGCTGCGGAGAGTTCCC,-1
15,GGAAAGGGAACTCCCTGACCCCTAGCACTT,3.36
16,CAGAGTAACCATGGGGGCTCAGGGCCTCTC,-1.04
17,AGAATTTAAACCAAACAGAACAAAGTCCAG,3.46
18,ATTTCTGTGGACTGCTCCAGTGGACATTGG,2.99
19,TGATAAGCAAGATGACTTTGGTCTAGACAC,0.829
20,ACTGTCCCAGCTGAGATTCAGAATAGTTAA,-0.894
21,TTCAAAGGAGTGTCTTTCTCCTTGAACACA,0.849
22,AATCATGGGCCCACAGATGATCAAAGGTCA,7.06
23,GAAGATTTGCGGCCATCTAGCTACAGGAGA,-1.17
24,CTCCAGGGAGAAACCTGCCAGGTGGACCAA,0.783
25,AAGATATTATCTCTGTCTGTCAAGGCTTTT,1.11

row,Sequence,binding signal (log2 normalized intensity)
1,AGGTCGGTGGTATGTGTGTGCTTTAACAAG,1.68
2,GGCGGGGTTTTCGGTTTTCAAATGAACCCG,2.96
3,TTCTTGCTCTTTACCCCTGCAAGGATTGAT,1.98
4,AGAAATCCACACAGCACTGACCTTTGAGAG,4.92
5,AGTAAATCTCACATTCGTTAACATCAGCTG,-0.325
6,TGGGCTCGGCGCTCCGCTTACTCGGCCTGG,-0.994
7,TCCCAGGATGAGGCCGTTCTAGCCCTTTTT,-0.918
8,CCAATTGACCCTATCCACATTCAGCCCACT,0.683
9,ACATTCCAGGGAACAAGGGGTGGATCTCTG,-1.18
10,TTGGGGGCCATGTCTCAGCCCAAGATCAAA,-1.06
11,CCTGGTGACCTTTGTTTGGTCAAATACCTA,2.9
12,GCACAAGAGGGTGGGAGTTCAGGGGGTTGG,-1.18
13,GACCTTTGCCCTCTGGCCCTTAAAGGCTTT,6.99
14,CACACACACAGCTTGGAGCTCCTTGTGAGC,-1.19
15,TCACAGGGAATTTCCAAAGAGCAGCTAGCT,-1.12
16,TCTCTGGCATGTATTTATCAACATTCTTTC,1.52
17,CCTTTTATTCAGGAAGTCGCTTGCCAGTAT,1.3
18,TTTTTGACTTACCATTTGCTGATAAGTAGG,0.249
19,CAGCCAGGGTCAGGAGAAGCAGAACAGGTA,-1.18
20,CTGCTCATTTTTCCCCTGACAAGTATCTCG,1.77
21,CACAGCAAGTAAATTCCGGGGCTGGAATTT,1.13
22,GTCAAATCACTGAAGCGACCCCTCGAGGCA,1.42
23,AAAACAGGTGTTCTTTCCCTCCAGCCCACT,1.31
24,TTCCTGAAGATCGCAGACTTTGGACTCTGC,7.83
25,CTGATGAATAGAAAGAGGTCAATGTACTTA,2.21

row,Sequence,binding signal (log2 normalized intensity)
1,TGGACCATGAGAAACATCCACATGTGGGTC,0.676
2,GTGTTTATCTTGTGGTTGGAATGTTTCTGG,2.68
3,TTGAGAACCTCCCATCAGCTGGGCTTGTTC,-0.781
4,ACTTGGGGTTCTTGGATCCTCAGGGTTCAT,2.49
5,TCCAAAAGGGCAGCAGTAACCCCCCAGGAG,3.7
6,GCGGGCTGGGGGCTGGGCGCGGGATCCTCT,-1.24
7,ACTATCATACACTATTTTCCTAAATATGTT,0.801
8,GGTCAAAGAGCAATCATCAAGGTGGTTTCA,1.71
9,CCAGCCCAGGTGGCTGCATCCTTCTCCTCC,-1.11
10,AGGTCAATGCCAGGACCCTGTGGGACTGGT,-1.06
11,GCAGAGTGGAGGCCAGCGCCAGGCTGGGGG,-1.11
12,TGATGAAGCCTATAGTGCTCCCTCCTGTGG,-0.606
13,CCATTTCACCTTTGCCCTGTCAGTCTCTCA,4.05
14,ACTCAGTTATCAACCTTATCAGCAGGACAC,0.893
15,GACTGGCATTCCCCTATGTCTAGGACTCTA,0.945
16,GGACTTTGGGCTGTGTTTTGCCCCTGCAGA,3.66
17,TCTGTTCATTGATAAAGGGTTACAAACTTC,0.913
18,GAGGGCATGTTGAGTGGAATATGAGGTCAG,1.82
19,TTAGGAGGATGACAAAGAGCAAGTGACCCT,3.83
20,GAAACAGTCTGATTCTAGGGCCCATGCCCT,0.599
21,GAACCCCCAGGTCACCCACAACCTACCCTT,4.35
22,CTTTGGCCGTGCATGCTTGGACTCTGAAGG,3.14
23,CCCTGTTATTAGTCCAAGAGATTTCTACAG,-0.195
24,AAGCAGCTGTGATGAGGCCAGCAGGGTGCC,-1.06
25,CTTCATTGTGCACCCACTTGGATAATTTCT,0.523

row,Sequence,binding signal (log2 normalized intensity)
1,GTCATAATTTGATCCAGTGTGCAAATGTGT,2.28
2,AAAAAGATGGTCTTACAACATAGTGATTTA,-0.107
3,CTTTGACCCTGCTGTAGTGTGTAAGTATGC,1.75
4,TTCAGCAGCATCTAAACTCTACTCACTAGA,-1.18
5,TTTGTAGGCAGCTAGGCAGGCTCAGAACTA,-1.15
6,TCCACCCTGAAAGAGAGGAGGCTGAAGACT,-1.24
7,ATAGCTGCCTGTGTGTTCTGCTATTCATTA,1.18
8,CAGAGGAACAGAGGGGTCTGAGCACATCAC,-1.17
9,AATGAGGTCAATAGTCCAGATACAGATGGC,3.23
10,GGGGACGGAAGTTGCAGTGAGCTAAGATTG,-1.09
11,AGAACTAAGCTGTTGCGTAAGGGTCTGACC,1.46
12,GATACACCCCTAATGAATGGCAAATTAAAC,-0.289
13,TTTTCTTCCACCTCCCTCCATGCTGTAGAT,2.26
14,TGCTTGATAAGACTGACAACCGGCTCTTCC,-1.1
15,GCAATCTAAGTCTGGCTCCTGAAACTAAAG,-1.24
16,GAGGAGAGGCAGTGGCCTGAGGCAGCCAGT,-1.09
17,CACCCTGTTGCACAAGCTGTGTGGCATGGT,0.16
18,AAGAGCAATCATCAAGGTGGTTTCACTTCA,0.297
19,CCTCTTCCCTCATATAATTTACATAACAGG,1.49
20,ATTCATGGACAGCCTTGCCACATGGTCACC,-0.761
21,AGGACAAAAGTAAATATGGTTTACCATATT,-0.934
22,TGTTGAAAAGAGCATAAGGTTTCCATCAAG,-0.784
23,GCATGCTATTTCAGGAATGTGACCCCTTTC,4.81
24,GTCACCTCCACCCACCCGTGCATCAACATA,3.62
25,ACATTCTGAGCCAGCACTTCGACCTCACAT,1.85

row,Sequence,binding signal (log2 normalized intensity)
1,AAAGAGGGTGTAAGAGTGAACTCTGACCAT,4.23
2,TGAGAAAAGAACCATGAGAGGGTTAAAAAC,-0.969
3,GCCCAACAGCATTAAGCTGAGGCAGAGTTG,-1
4,TCCTCCAACTGCCACGGTAAATATTATCAT,0.708
5,TATCCAATAAAACACTATCTTCTTTCAGTG,0.883
6,TTTATTTAGCCTCACTAAGATAGGGAAGCT,-1.13
7,AAGCAATGGCTACCAAGGAGTGGACTGTTC,1.7
8,CTTCCACCCACTTTATCTTCTATAGGAATT,0.867
9,GACAGGAGGTATGCCAGGAATGCTGAGGAG,-1.19
10,TTTGGAATTAAGGAGATTTGGCTTTGAATT,-1.07
11,CCTCCTCTCTGAGCAGTCAAACTGGTTTCT,0.459
12,TCTGCAGGGTTAAATCTCGGTATAATTCCT,-1.14
13,GGATGGGGTCACGAGACGGTGTCCCTGGCC,-0.831
14,GTGCACCCTTCCTCTGCAGCCGCCCTTTTG,2.32
15,GTGGTCATGTAGGTGTCTCAGGAATGTCCT,1.85
16,TTTCATCTCTGTAAACTGGCCAGAAGGTCA,2.81
17,CCCTTTGACCTCTGCTTCCTGCTACAGAGC,1.87
18,GGTTGTGAGGGAGGGCACAGGCAACAGAGG,-0.917
19,TGGGACCATGAGTACCAGGTCAAAAGTTCA,3.98
20,CACCTTCTTCCTAGGCAATCCCATGACCTT,3.25
